Screen size: about 310,000 compounds; about 14,000 (4.5%) showed an effect of 50% or more. The effect is printed as a negative number. Some of the results follow.
biological target: human ether-à-go-go-related gene (hERG) potassium channel (human, UniProt Q12809); test: primary screen, population patch clamp on CHO cells stably expressing hERG
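Further: peak tail current of the secondary pulse compared with the same well before compound.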

human ether-à-go-go-related gene (hERG) potassium channel, sequence (Q12809 whole entry, looked up): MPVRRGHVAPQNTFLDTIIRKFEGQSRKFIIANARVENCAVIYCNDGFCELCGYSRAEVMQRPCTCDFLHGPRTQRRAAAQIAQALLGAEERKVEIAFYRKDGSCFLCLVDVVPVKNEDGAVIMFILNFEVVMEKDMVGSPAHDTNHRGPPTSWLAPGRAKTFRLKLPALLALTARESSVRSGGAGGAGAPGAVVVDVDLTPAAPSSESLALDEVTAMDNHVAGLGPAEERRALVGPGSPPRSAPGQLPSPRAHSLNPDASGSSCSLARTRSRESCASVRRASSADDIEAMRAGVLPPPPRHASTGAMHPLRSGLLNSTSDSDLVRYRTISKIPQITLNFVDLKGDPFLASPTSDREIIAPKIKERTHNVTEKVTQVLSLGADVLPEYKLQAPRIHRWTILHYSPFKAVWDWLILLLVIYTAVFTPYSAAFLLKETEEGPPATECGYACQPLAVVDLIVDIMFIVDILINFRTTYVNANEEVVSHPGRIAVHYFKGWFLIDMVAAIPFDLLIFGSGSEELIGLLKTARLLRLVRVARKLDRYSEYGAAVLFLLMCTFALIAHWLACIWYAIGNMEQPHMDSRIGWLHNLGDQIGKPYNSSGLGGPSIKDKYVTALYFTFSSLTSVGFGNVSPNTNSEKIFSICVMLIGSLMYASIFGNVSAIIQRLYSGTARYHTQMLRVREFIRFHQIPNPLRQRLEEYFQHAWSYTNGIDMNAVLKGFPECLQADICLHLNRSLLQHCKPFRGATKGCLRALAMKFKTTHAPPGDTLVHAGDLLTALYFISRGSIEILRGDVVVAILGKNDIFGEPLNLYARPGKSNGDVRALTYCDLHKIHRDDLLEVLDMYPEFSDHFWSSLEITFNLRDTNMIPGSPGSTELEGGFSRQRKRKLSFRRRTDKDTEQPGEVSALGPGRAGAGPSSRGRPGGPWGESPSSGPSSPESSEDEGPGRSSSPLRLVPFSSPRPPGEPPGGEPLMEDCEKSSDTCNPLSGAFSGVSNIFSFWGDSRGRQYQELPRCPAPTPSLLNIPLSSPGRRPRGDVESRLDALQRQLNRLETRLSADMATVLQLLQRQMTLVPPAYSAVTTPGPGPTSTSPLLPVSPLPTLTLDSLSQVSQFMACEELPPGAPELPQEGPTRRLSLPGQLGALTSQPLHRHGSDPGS

Row | Compound | hERG current change (%, negative = inhibition) at 10uM [%]
1 | COC(=O)c1ccccc1NC(=S)NC(=O)COc1ccccc1Cl | -4.5
2 | Cc1cc(NCCCN2CCOCC2)n2ncc(-c3ccc(Cl)cc3)c2n1 | 0.66
3 | Cn1c(=O)c2c3c(sc2n2c(SCC(N)=O)nnc12)CC(C(C)(C)C)CC3 (stereo not shown) | -0.432
4 | COc1ccc2c(c1)c(/C=N/Nc1ccc(C(=O)O)cc1)c(C)n2C | 25.8
5 | COc1ccc(C(=O)OCC(=O)Nc2ccc3[nH]c(=O)[nH]c3c2)cc1 | 1.19
6 | CCN1C(=O)C(=Cc2ccc(N3CCOCC3)o2)C(=O)N(CC)C1=S | 13.8
7 | CCOc1ccc(N2C(=O)c3ccc(C(=O)OCc4c(C)noc4C)cc3C2=O)cc1 | 15.5
8 | CCOCCCn1c(SCC(=O)NC2CCCC2)nc2ccccc2c1=O | -1.74
9 | CNC(=O)COc1ccc2oc3c(c2c1)CCCC3 | 9.14
10 | CCOc1ccc(OCCn2c(=S)[nH]c3c(N)ncnc32)cc1 | 13.9
11 | C#CCOC(=O)/C(=C/c1ccc(F)cc1)NC(C)=O | 0.0487
12 | O=C1CN(C(=O)c2ccc(Cl)c([N+](=O)[O-])c2)c2ccccc2N1 | 13.6
13 | COC(=O)c1sc2ccccc2c1N | 2.43
14 | O=C(CSc1nnc(NC(=O)c2c(F)cccc2F)s1)NC1CCCC1 | 2.94
15 | O=C(NC1CCCC1)C1CC(=O)N(c2ccccc2)C1 (stereo not shown) | 15.9
16 | CC(C)(C)N(NC(=O)Nc1ccc(Cl)cc1)C(=O)c1ccccc1 | 7.3
17 | CCOC(=O)CN(C(=O)CSc1nnc(CNc2ccc(F)cc2)o1)c1ccccc1 | -35.3
18 | Cc1nc2ccccc2c(=O)n1C1CCCCCC1 | -7.64
19 | Cc1ccc2c(c1)NC(=O)C(CC(=O)NCCCN1CCCC1=O)O2 (stereo not shown) | 16.5
20 | CSc1nnc(SCC(=O)N(C)c2c(N)n(Cc3ccccc3)c(=O)[nH]c2=O)s1 | 5.79
21 | Cc1[nH]n(-c2ccccc2)c(=O)c1N=Nc1ccccc1C(=O)N1CCCCC1 | 28
22 | CCOC(=O)c1sc(Nc2nc(OC)cc(OC)n2)nc1C | -24.5
23 | CCN(CC)S(=O)(=O)c1ccc(/C=C/C(=O)OCC(=O)Nc2cccc3ccccc23)cc1 | 4.49

Row | Compound | hERG current change (%, negative = inhibition) at 10uM [%]
24 | Cc1csc2nc(O)c(C(=O)NC3CCCCCC3)c(=O)n12 | -8.49
25 | CCN1CCN(S(=O)(=O)c2ccc(Cl)c(C(=O)Nc3nnc(C)s3)c2)CC1 | -2.08
26 | CSc1nc(SCC(=O)NCC2CCCO2)c2c3c(sc2n1)CN(C)CC3 (stereo not shown) | 13
27 | CCN(CC)c1ccc(C(=O)N/N=C(\C)c2cccnc2)cc1 | 7.66
28 | Cc1cc(NC(=O)CSc2nnnn2C2CCCC2)no1 | 6.19
29 | NC(=O)COc1ccc2cc(-c3ccc(F)cc3)c(=O)oc2c1 | 12
30 | Cc1ccc2nc(-c3cccc(S(=O)(=O)N4CCCC4)c3)cn2c1 | 9.93
31 | CCCCNC(=O)C1CCC(CNS(=O)(=O)c2ccc(C)cc2)CC1 (stereo not shown) | -0.562
32 | O=C1CCCN1CCC1CCN(C(=S)Nc2ccc(F)cc2)CC1 | -28.9
33 | O=C(N/N=C/c1ccncc1)c1cc(Br)ccc1OCc1ccccc1 | -6.19
34 | CN1CCN(S(=O)(=O)c2cccc(C(=O)NCCOc3ccccc3)c2)CC1 | -17.5
35 | COc1ccc(OC)c(-n2c(O)c(C=Nc3c(C)n(C)n(-c4ccccc4)c3=O)c(=O)[nH]c2=O)c1 | 21.7
36 | COc1ccc(F)cc1S(=O)(=O)n1nc(C)cc1C | 1.04
37 | C[n+]1ccc(C(=O)NCc2ccccc2)cc1.[I-] | 29.2
38 | CN1CCC(N(CCc2ccccc2)C(=O)CCC(=O)O)CC1 | -1.87
39 | C[C@@H]1CC[C@]2(O[C@H](CCO)C[C@@H](O)[C@@H]2O)O1 | 0.536
40 | CCCC(=O)c1ccc(-c2ccccc2)cc1 | -4.95
41 | Cc1cc(CN(C)C(=O)c2ccc(OC3CCN(CCc4ccccc4)CC3)cc2)on1 | -74.1
42 | O=C(O)C1CCCNC1 (stereo not shown) | -1.74
43 | O=C(Oc1c(-c2ccccc2Cl)oc2ccccc2c1=O)c1ccc(Cl)cc1 | 2.37
44 | C[N+]1(C)CCC(OC(=O)C(O)(c2ccccc2)C2CCCC2)C1.[Br-] (stereo not shown) | 18.2
45 | CC(NC(=O)Cc1c(F)cccc1Cl)C1CCCO1 (stereo not shown) | -8.47
46 | O=C1CSC(c2ccccc2[N+](=O)[O-])N1c1ccccc1 (stereo not shown) | 17.2
